This passage reports gametocyte viability results from the supplement of paper PMC12297408.

Structures can show the parent of a compound that is named as a salt. About 40 (3%) of roughly 1,300 compounds showed activity. This is one part of the list.

The experiment concerns Plasmodium falciparum NF54/iGP1_RE9H ulg8 stage V gametocytes. The experiment is described as follows: gametocyte viability (luciferase signal relative to DMSO control) (% of DMSO control); higher = less gametocytocidal activity, active = 50 or less. The following applies: exposure time: 72 h. In short, it runs like this:
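In 96-well plates holding nanolitre spots of compound (10 mM DMSO stocks), NF54/iGP1_RE9Hulg8 stage V gametocytes from day 12 were added at ~2.5% gametocytemia and 3% hematocrit in medium with 0.5% Albumax II, giving single wells at 10 µM or 1 µM. Incubation lasted 72 h at 37 °C. Each 90 µl sample then received 10 µl D-luciferin (30 mg/ml) before luminescence reading on an IVIS Lumina II, and viability was normalized to the mean of DMSO vehicle wells on the same plate.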

Consider `Cc1cnc(C(=O)O)c[n+]1[O-]` [Acipimox], for which the gametocyte viability is, setting by setting: (concentration: 1 µM) inactive: 82.7; (concentration: 10 µM) inactive: 86.9.
In the same order, the values of `CN[C@@H]1[C@H](O[C@H]2[C@H](O[C@H]3[C@H](O)[C@@H](O)[C@H](NC(=N)N)[C@@H](O)[C@@H]3NC(=N)N)O[C@@H](C)[C@]2(O)CO)O[C@@H](CO)[C@H](O)[C@H]1O` [Dihydrostreptomycin sulfate] are inactive: 98.9 and inactive: 94.
In the same order, the values of `NCc1ccc(S(N)(=O)=O)cc1` [Mafenide hydrochloride] are inactive: 78.7 and inactive: 79.5.
Regarding `CCc1oc2ccccc2c1C(=O)c1cc(Br)c(O)c(Br)c1` [Benzbromarone], the gametocyte viability was inactive: 82.5 (concentration: 1 µM) and inactive: 77.9 (concentration: 10 µM).
Take `CC/C(=C(\c1ccccc1)c1ccc(OCCN(C)C)cc1)c1ccccc1` [Tamoxifen citrate]: the gametocyte viability was inactive: 84.1 (concentration: 1 µM) and inactive: 89.4 (concentration: 10 µM).
The like results for `C#C[C@]1(O)CC[C@H]2[C@@H]3CCC4=C(CCC(=O)C4)[C@H]3CC[C@@]21C` [Norethynodrel] were, in that order, inactive: 83.2 and inactive: 68.7.
In the same order, the values of `CCOC(=O)[N-]c1c[n+](N2CCOCC2)no1` [Molsidomine] are inactive: 82.7 and inactive: 89.2.
The like results for `CC[N+](CC)(CC)CCOc1cccc(OCC[N+](CC)(CC)CC)c1OCC[N+](CC)(CC)CC` [Gallamine triethiodide] were, in that order, inactive: 85.5 and inactive: 86.2.
As for `NS(=O)(=O)c1cc2c(cc1Cl)NC(CC1CCCC1)NS2(=O)=O` (stereo not drawn) [Cyclopenthiazide], the gametocyte viability by setting is: (concentration: 1 µM) inactive: 90; (concentration: 10 µM) inactive: 95.6.
The like results for `CC(C)(C)NCC(O)c1cc(O)cc(O)c1` (stereo not drawn) [Terbutaline hemisulfate] were, in that order, inactive: 92 and inactive: 85.
The like results for `CCOc1ccc(NC(C)=O)cc1` [Phenacetin] were, in that order, inactive: 85.3 and inactive: 87.3.
In the same order, the values of `CN1CCC[C@@H]1CCO[C@](C)(c1ccccc1)c1ccc(Cl)cc1` [Clemastine fumarate] are inactive: 91.5 and inactive: 63.
In the case of `COc1cc2ncnc(Nc3ccc(F)c(Cl)c3)c2cc1OCCCN1CCOCC1` [Gefitinib], the gametocyte viability is inactive: 95.8 (concentration: 1 µM) and inactive: 85.9 (concentration: 10 µM).
In the same order, the values of `CC(C(=O)O)c1ccc(C(=O)c2cccs2)cc1` (stereo not drawn) [Suprofen] are inactive: 88.1 and inactive: 84.9.
`CCCCC[C@H](O)/C=C/[C@H]1[C@H](O)CC(=O)[C@@H]1CCCCCCC(=O)O` [Alprostadil]: the gametocyte viability by setting is: (concentration: 1 µM) inactive: 82.4; (concentration: 10 µM) inactive: 86.2.
Turning to `CCN1CCC[C@H]1CNC(=O)c1c(O)c(Cl)cc(Cl)c1OC` [Raclopride], the gametocyte viability was inactive: 89.4 (concentration: 1 µM) and inactive: 89 (concentration: 10 µM).
The like results for `COC(=O)C1=C(C)NC(C)=C(C(=O)OCC(C)C)C1c1ccccc1[N+](=O)[O-]` (stereo not drawn) [Nisoldipine] were, in that order, inactive: 83.7 and inactive: 79.4.
The like results for `COC(=O)C1=C(C)NC(C)=C(C(=O)OCCN(C)Cc2ccccc2)C1c1cccc([N+](=O)[O-])c1` (stereo not drawn) [Nicardipine hydrochloride] were, in that order, inactive: 76 and inactive: 76.4.
The like results for `CN1CCN(c2c(F)cc3c(=O)c(C(=O)O)cn4c3c2SCC4)CC1` [Rufloxacin] were, in that order, inactive: 87.6 and inactive: 87.7.
As to `Cc1ccccc1C(OCCN(C)C)c1ccccc1` (stereo not drawn) [Orphenadrine hydrochloride], the gametocyte viability is, setting by setting: (concentration: 1 µM) inactive: 84.4; (concentration: 10 µM) inactive: 87.5.
With `CC(C)NCC(O)c1ccc(O)c(O)c1` (single isomer, unassigned; (-)) [(-)-Isoproterenol hydrochloride], the gametocyte viability runs as follows: (concentration: 1 µM) inactive: 91.5; (concentration: 10 µM) inactive: 89.5.
In the same order, the values of `NC(=O)NC1NC(=O)NC1=O` (stereo not drawn) [Allantoin] are inactive: 86.6 and inactive: 84.4.
In the same order, the values of `CN(C)CCOC(c1ccc(Cl)cc1)c1ccccn1` (stereo not drawn) [Carbinoxamine maleate salt] are inactive: 84.3 and inactive: 78.5.
`O=C1CCc2ccc(OCCCCN3CCN(c4cccc(Cl)c4Cl)CC3)cc2N1` [Aripiprazole]: the gametocyte viability was inactive: 96.9 (concentration: 1 µM) and inactive: 91.5 (concentration: 10 µM).
As for `CCN(CC)CCOc1ccc(C(=C(Cl)c2ccccc2)c2ccccc2)cc1` [Clomiphene citrate (Z,E)], the gametocyte viability is inactive: 82.4 (concentration: 1 µM) and inactive: 95.2 (concentration: 10 µM).
In the same order, the values of `CCCCNc1ccc(C(=O)OCCN(C)C)cc1` [Tetraca? hydrochloride] are inactive: 87 and inactive: 89.
In the same order, the values of `CN1CCOC(c2ccccc2)c2ccccc2C1` (stereo not drawn) [Nefopam hydrochloride] are inactive: 89.7 and inactive: 87.
As for `CN1CCC(=C2c3ccccc3CCc3sccc32)CC1` [Pizotifen malate], the gametocyte viability reads like this: (concentration: 1 µM) inactive: 90; (concentration: 10 µM) inactive: 88.9.
In the same order, the values of `Cc1cnc(C(=O)NCCc2ccc(S(=O)(=O)NC(=O)NC3CCCCC3)cc2)cn1` [Glipizide] are inactive: 84.2 and inactive: 87.4.
